# Source: PubChem BioAssay (Tox21)
# Inconclusive results, whose numbers are uncertain, are shown. Potencies beside an inconclusive call are fits to weak or partial responses and may not hold up.
# Assay: qHTS assay to identify small molecule antagonists of the TGF-beta/Smad signaling pathway (AID 1346924)
# Details: SBE-bla HEK293T, TGF-beta/Smad reporter, beta-lactamase ratio; activity, negative = inhibition: at 76.8 µM (top of the series) unless noted; active means well fitted inhibition curve with a large enough effect in the signal ratio in the repeat runs (not every such curve was filed as active); inconclusive means weak or mixed curves; inactive means flat fitted curve, though single readings scatter; the % refers to the signal ratio
# Source text: U.S. Tox21 Program National Center for Advancing Translational Sciences [NCATS] NIH Chemical Genomics Center [NCGC] U.S. Environmental Protection Agency [EPA] National Institutes of Environmental Health Sciences [NIEHS] National Toxicology Program [NTP] U.S. Food and Drug Administration [FDA] Tox21 Assay Overview: Transforming growth factor beta (TGF-beta) superfamily consists of a large number of structurally related dimeric proteins that act as hormones or local mediators in regulating a wide range of biological functions. This superfamily includes TGF-betas themselves, the bone morphogenetic proteins (BMPs) and the activins. These ligands induce oligomerization of serine/threonine receptor kinases and phosphorylate the cytoplasmic signaling molecules of Smad protein family. CellSensor SBE-bla HEK 293T cell line (Life Technologies, Carlsbad, CA), responsive to TGF-beta was used to screen Tox21 10K compound library for identification of agonists/antagonists of the Smad signaling pathway. This cell line contains a beta-lactamase reporter gene under control of the Smad binding element (SBE) stably integrated into HEK 293T cells.
# Tox21 Assay Protocol Summary: SBE-bla HEK 293T cells were dispensed at 4,000/well in 5 uL of assay medium into black wall/clear-bottom 1536-well plates using a Multidrop Combi (ThermoFisher Scientific, Waltham, MA) dispenser. After the assay plates were incubated at 37 C and 5% CO2 for an overnight, 23 nL of compounds dissolved in DMSO, positive controls or DMSO only was transferred to the assay plate by a Pintool station (Kalypsys, San Diego, CA). Compound transfer was followed by the addition of 1 uL of 0.25 ng/mL TGF-beta1 or assay buffer using two separate tips of Flying Reagent Dispenser (FRD, Aurora Discovery, San Diego, CA). The assay plates were incubated at 37 C and 5% CO2 for 5 hr. One uL of LiveBLAzer B/G FRET substrate (Life Technologies) was added using FRD and the plates were incubated at room temperature for 2 hr. Fluorescence intensity (405 nm excitation, 460 nm and 530 nm emissions) was measured using an Envision plate reader (PerkinElmer, Shelton, CT).
# Potency means the concentration at half of the fitted maximal effect; tags describe the fitted curve by direction and shape or compound fluorescence and quenching.
Structure (SMILES),"activity, negative = inhibition",Potency
COc1cc(Nc2c(C#N)cnc3cc(OCCCN4CCN(C)CC4)c(OC)cc23)c(Cl)cc1Cl,inconclusive: -22.4% [at 35.3 µM],–
CCCCCCCCCCCC(=O)OCC(C)OC(=O)CCCCC(=O)O (stereo not given),inconclusive: 22.6% [at 35.3 µM],–
Cc1cn([C@H]2C[C@H](N=[N+]=[N-])[C@@H](CO)O2)c(=O)[nH]c1=O,inconclusive: -5.83%,–
Cc1ccc2c(c1[N+](=O)[O-])C(=O)c1ccccc1C2=O,inconclusive: 15.9% [at 35.3 µM],–
CN(C)c1ccc(C(=N)c2ccc(N(C)C)cc2)cc1,inconclusive: -17.7%,"inconclusive: 48.4 µM [rising, partial curve]"
CCCOCC(C)OCC(C)O (stereo not given),inconclusive: 7.45%,–
C[C@H]1c2cccc(O)c2C(O)=C2C(=O)[C@]3(O)C(O)=C(C(N)=O)C(=O)[C@@H](N(C)C)[C@@H]3[C@@H](O)[C@@H]21,–,"inconclusive: 26.8 µM [rising, partial curve, poor fit]"
C=CC(=O)OCCOC(=O)C=C,inconclusive: 12.3%,–
C=COCC1CCC(CO)CC1 (stereo not given),inconclusive: 8.23%,–
O=C(O)c1cc(-c2ccc(F)cc2F)ccc1O,–,"inconclusive: 10.7 µM [fluorescent, partial curve]"
O=C1c2ccccc2C(=O)C1c1nc2ccccc2c(Br)c1O,–,inconclusive: 21.9 µM [fluorescent]
C[C@]12CC[C@@H]3c4ccc(O)cc4CC[C@H]3[C@@H]1CC[C@@H]2O,inconclusive: 21.1%,–
Nc1c(S(=O)(=O)O)cc(Br)c2c1C(=O)c1ccccc1C2=O,inconclusive: -21.5%,–
NC(=O)N(O)[C@@H]1C=C[C@H](Oc2cccc(Oc3ccc(F)cc3)c2)C1,inconclusive: -4.37%,–
O=C(O)c1ccccc1C(=O)Nc1ccc(S(=O)(=O)Nc2nccs2)cc1,inconclusive: 9.33% [at 35.3 µM],–
CCCCN(CCCC)C(C(N)=O)c1ccc(OC)cc1 (stereo not given),inconclusive: -7.55% [at 35.3 µM],–
C=CCCCCCCCCCCCC,inconclusive: 15.6%,–
O=C1c2ccccc2C(=O)c2c(O)ccc(O)c21,–,"inconclusive: 30.9 µM [rising, partial curve]"

Structure (SMILES),"activity, negative = inhibition",Potency
Oc1ccc(N=Nc2ccccc2)cc1,inconclusive: -1.46%,–
Cn1sccc1=O,inconclusive: -16.8%,–
O=C(O)c1ccccc1[N+](=O)[O-],inconclusive: -6.15%,–
COc1ccc(C(=O)c2ccccc2O)c(O)c1,inconclusive: -28.8%,–
Cc1cc(O)ccc1N,inconclusive: 12.4%,–
C[C@@H]1[C@H](O)[C@@H](C)/C=C/C=C\C=C\C=C\C=C\C=C\C=C\[C@H](O[C@@H]2O[C@H](C)[C@@H](O)[C@H](N)[C@@H]2O)C[C@@H]2O[C@](O)(C[C@@H](O)C[C@@H](O)[C@H](O)CC[C@@H](O)C[C@@H](O)CC(=O)O[C@H]1C)C[C@H](O)[C@H]2C(=O)O (stereo in doubt),–,"inconclusive: 43.7 µM [rising, partial curve]"
N=C(N)N,inconclusive: -7.54% [at 35.3 µM],–
CCCCCCCCCCCCCCC(=O)O,inconclusive: 30.4%,–
CC(=O)[C@H]1[C@H](C#N)C[C@H]2[C@@H]3CC=C4C[C@@H](O)CC[C@]4(C)[C@H]3CC[C@@]21C,inconclusive: -6.28% [at 35.3 µM],–
CC(C)CCCO,inconclusive: -0.682%,–
CC1=C2[C@@H]([C@H](C)CC[C@H]2/C=C(\C)C(=O)O)[C@H](O)C1,inconclusive: -8.72%,–
CS(=O)(=O)c1ccc([C@@H](O)[C@@H](CF)NC(=O)C(Cl)Cl)cc1,inconclusive: -10.2% [at 35.3 µM],–
COCCOC(=O)C1=C(C)NC(C)=C(C(=O)OC/C=C/c2ccccc2)C1c1cccc([N+](=O)[O-])c1 (stereo not given),inconclusive: -2.83% [at 35.3 µM],–
CC(C)[C@@H]1CC[C@@H](C)CC1=O,inconclusive: -20.2%,–
CC(C)(C)C(=O)OCOC(=O)[C@@H]1N2C(=O)[C@@H](NC(=O)[C@H](N)c3ccccc3)[C@H]2SC1(C)C,inconclusive: -0.889% [at 35.3 µM],–
Cc1cc(=O)n(-c2ccccc2)n1C,inconclusive: 2.01% [at 35.3 µM],–
O=c1c(-c2ccccc2)c1-c1ccccc1,inconclusive: -5.01% [at 35.3 µM],–
C=C1CC[C@H](O)CC1=C/C=C1\CCC[C@]2(C)[C@@H]([C@H](C)/C=C/[C@H](C)C(C)C)CC[C@@H]12,inconclusive: -4.33%,"inconclusive: 54.9 µM [rising, partial curve]"

# Same assay, conditions: SBE-bla HEK293T, TGF-beta/Smad reporter, beta-lactamase ratio; at 35.3 µM (top of the series)
row,Structure (SMILES),"activity, negative = inhibition"
1,CCCCOC(=O)c1ccc(O)cc1,inconclusive: -4.48%

# Same assay, conditions: SBE-bla HEK293T, TGF-beta/Smad reporter, beta-lactamase ratio; at 76.8 µM (top of the series)
row,Structure (SMILES),"activity, negative = inhibition"
1,CCCCOC(=O)c1ccc(O)cc1,inconclusive: -20.1%
